Experimental data reported in the RNAGym collection of RNA variant scans (doi:10.7554/elife.90254).
The source gives no read counts; variants with many changes may rest on few reads.

B1: LINE1-mini (parent)
chain: GGCAGAGCUCAACACAGCGUGGCAAAGUGGCUGUGGCUAGACUGCC

Variants of: B1
Assay: self-cleavage, relative activity (ratio to wild type); higher = more cleavage; in vitro, sequencing; the parent is a self-cleaving ribozyme

| Variant | self-cleavage |
| --- | --- |
| GGCAGAGCUCAACACAUCGUUGCACAGUGUCUGUGGCUAGACUGCC | 0.04 |
| GGCCGAGGUCAACACGGCGUGGCAAAGUGACUGUGGCUAGAGUGCC | 0.03 |
| GACAGAGCUCAACACCACGUGGCAAAGUGGCUGUGGCAGGACUGCC | 0.03 |
| GGCAGAGUUCAACACAGCGUGGCAAAGUGUCUGUGGCUAGAGUGCC | 0.27 |
| GGCAGAGCUCAACAUAGCGUGGCAAAUUGGCUGUCGCUUGACUGAC | 0.02 |
| GGCAGGGCUCAACACAGCCAGGCAAAUUGGCUGUGGCUGGACUGCC | 0 |
| GGCAGAGCUUAACACAGCGUGGCAAAGUGGGUGUGGCUAGACUGUC | 0.02 |
| GGCAGAGCUCAACACAGCGUGGCAGAGUGGCAGUGGCUAUACUGCC | 0.09 |
| GGUAGAGGUCAACACAGCGUGGCAAAGUGGCUGUGGCUAUUCUGCC | 0.1 |
| GGUAGAGCUCAACAGAGCGUGGCAAAGUGGCUGUGGCUAUACUGCC | 0.02 |
| GGCUGAGCUCAACACAGGGUGGCAUAGUGGCUGUGGCUAGACUGCC | 0.04 |
| GGCAGAGGUCAACACAGAUUGGCAAAGUGGCCGUGGCUAGACUGCC | 0.02 |
| GGCAGAGCUCAACACAGCGUGACAAAGUGGCUGUGGGUAGACUGUC | 0.04 |
| GGCAGAGCUCAACCCAGCGUGGUUAAGUGGGUGUGGCUAGACUGCC | 0.02 |
| GACAGACCUCAACACAGCGUGGCAAAUUUGCUGUGGCUAGACUGCC | 0.54 |
| GGCAGAGCUCAACACAGCGUGGCAAAGUGGCUGUCGGCAGACUGGC | 0.06 |
| GGGAGAGCUCAACACAGCGUGUCAAAGUGACUGUGGCGAGACUGCC | 0.66 |
| GGCAGGGCUCAACAGAGCGUGGCAAAGUUGCUGUGGCUAGACUGCC | 0.01 |
| GGCAGAGCUAAACACAGCGUGGCAAAGUAGCUGUGGCUAGACUACC | 0 |

| Variant | self-cleavage |
| --- | --- |
| GGCAGUACUCAACACAGGGUGGCAAAUUGGCUGUGGCUAGACUGCC | 0.2 |
| GGCAGAUCUCAACACAGCGAGGCAAAGUGGCUGUGGCUAGACUGCG | 0.05 |
| AGCAGAGGUCAACACAGCGUGGCAAAGUGUCUGUGGCUAGACUGCC | 0.16 |
| GGGAGAGCUCAUCACAGCGUGGCAAAUUGGCUGUGGCUAGACUGCC | 0.06 |
| GGCAGAGCUCAACACAGCGUGGCAAAGAGGCUGUGGUUAAACUGUC | 0.02 |
| GGCAAAGCUCUACACAGCGUGGCAAAGUGGCUGUGGAUAGACUGCC | 0.03 |
| GGCAGAGCGCAACACAGCGUGGCAAGGUGGCUGUGGCUAGACUGCA | 0.05 |
| GGCAGUGCUUAACACAGCGUUGCAAAGUGGCUGUGGCUAGACUGCC | 0.26 |
| GGCAGAGCUCAACACAACGCUGCAAAGUGGCUGUGGCUAGACUGCC | 0.18 |
| GACCGAGCUCAACACAGCGUGGCAAAGUGGCUUUGGCUAGACUGCC | 0.07 |
| GGCAGAGCUCAACACAGCGUGUCAAAUUUGCUGUGGCCAGACUGCC | 0.37 |
| GGCAGAGCUCAACACAGCAUGCCAAAGUGGCUGUGGCUCGACUGCC | 0.09 |
| GGCAGAUCUCAAGACAGCGUGGCAAUGUGGCUGAGGCUAGACUGCC | 0.09 |
| GGCAGAGCUCAACACAGCGUGGAACAGUGGCUGUGGCUAGUCUGCC | 0.3 |
| GGCAGAGCUAAAUACAGCGUGGCAAAGUGGCGGUGGCUAGACUGCC | 0.03 |
| GGCGGAGCUCAACACAGAGUGGCAAAGAGGCUGUGGCUAGACUGCC | 0.72 |
| GGCAGAGCUCAACUCAGCGUGGCAAAGUGGCUCAGGCUAGACUGCC | 0.08 |
| GGCAGAGCUCAAGACAGCGUGGCAAAGUGGCUGUGGCUAUACAGCC | 0.01 |
| GGCAGAUCUCAACACAGCGUAGCAAAGUGCCUGUGGCUAGACUGCU | 0.05 |

| Variant | self-cleavage |
| --- | --- |
| GUCAGAGCUCAACUCAGCGGGGCACAGUGGCUGUGCCUAGACUGCC | 0.06 |
| GGCAAAGCUCAAGACAGCGAGGCAAAGUGGCUGUGGCUAGACUUCC | 0.04 |
| GGUAGAGCUCAACACAGCGUGGCAAAGUGGGUGUGUCUAGACUGCG | 0.1 |
| GGCAGAGCUGAAUACAGCGUGUCAAAGUGGCUGUAGCUAGACUGCC | 0.03 |
| GGCAGUGCUCAACACAGCGUGGCGAAGUGGCUGUGGCUAAAGUGCC | 0.09 |
| CGCAGAGCUCAACACAGCGUGGCAAAGUGGCUGUGACGAGGCUGCC | 0.02 |
| GGCAGAGAUCAACACAUCGUGGAAAAAUGGCUGUGGCUAGACUGCC | 0.35 |
| GGCAGAAAUCAACACAGCGGGGCACAGUGGCUGUGGCUAGCCUGCC | 0.15 |
| GGCAGACCUCAACAGAGCGUGGCAAAGUGGCUGGGGCUAGACCGCC | 0.01 |
| GGCAGAGCUCACCACAGCAUUGCAAAGUGGCUGUGGCUAGACCGCC | 0 |
| GUCAGAGCUCAAUACAGCGUGGGAAAAUGGCUGUGGCUAGACUGCC | 0.01 |
| GGCGGAGAUCAACACAGCGUGGCGAAGUGGCUGUGGCUAGAUUGCC | 0.04 |
| GGCAGAGCUCAACACAGCGUGGCAAAGUAGCUGUGGCUAGACAACC | 0.11 |
| GGGAGUGCCCAACAGAGCGUGGCAAAGUGGCUGUGGCUAGACUCCC | 0.03 |
| GGCUGAGCUCAACACAGCAUGGCAAAGUCGCUGUGGCUAGACUGCC | 0.28 |
| GGCACAGCUCAAAACAGCGUGGCAGAGUGGCUGUGGCUAGACUGCC | 0.05 |
| GGGUGAGCUCAACAUAGCGUGGCAAAGUGGCUGUGGCUAGACUGCC | 0.19 |
| GGCAUAGCUUAACACAGCGUGGCAAACUUGCUGUGGCUAGACUGCC | 0.04 |
